# The campaign covered roughly 270,000 compounds. About 5,800 (2.1%) were called active. Inconclusive means that the source gave no clear call. Such entries were picked first, then a sample of the others. Calls follow the shape of the dose curve; as a rule, active = well fitted inhibition curve with a large enough effect; inconclusive = small, poorly fitted or top-dose-only effect; inactive = flat fitted curve, though single readings scatter. Potencies beside an inconclusive call are fits to weak or partial responses and may not hold up.
# Target: Microtubule-associated protein tau (Homo sapiens) (UniProt P10636)
# UniProt P10636, sequence (P10636 whole entry, looked up): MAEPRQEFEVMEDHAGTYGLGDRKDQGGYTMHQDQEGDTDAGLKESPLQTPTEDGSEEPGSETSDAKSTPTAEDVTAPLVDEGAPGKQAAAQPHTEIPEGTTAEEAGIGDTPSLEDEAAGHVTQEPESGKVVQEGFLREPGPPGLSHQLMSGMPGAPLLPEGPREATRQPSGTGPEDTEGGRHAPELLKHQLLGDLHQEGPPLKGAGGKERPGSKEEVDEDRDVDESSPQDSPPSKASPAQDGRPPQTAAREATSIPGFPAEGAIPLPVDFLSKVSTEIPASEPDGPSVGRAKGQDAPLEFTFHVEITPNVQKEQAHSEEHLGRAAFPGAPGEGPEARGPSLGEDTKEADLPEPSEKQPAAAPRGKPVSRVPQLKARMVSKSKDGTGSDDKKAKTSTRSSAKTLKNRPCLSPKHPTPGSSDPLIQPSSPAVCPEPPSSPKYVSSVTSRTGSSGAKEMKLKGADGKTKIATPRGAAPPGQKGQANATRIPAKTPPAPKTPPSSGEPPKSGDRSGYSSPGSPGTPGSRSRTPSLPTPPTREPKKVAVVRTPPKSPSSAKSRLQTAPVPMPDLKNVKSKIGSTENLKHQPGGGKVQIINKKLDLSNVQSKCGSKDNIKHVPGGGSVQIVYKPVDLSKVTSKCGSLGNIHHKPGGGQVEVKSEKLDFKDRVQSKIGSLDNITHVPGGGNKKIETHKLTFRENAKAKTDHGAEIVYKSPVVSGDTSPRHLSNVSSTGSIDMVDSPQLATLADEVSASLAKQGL
# Experiment: qHTS for Inhibitors of Tau Fibril Formation, Thioflavin T Binding; also: nearly all actives have a fitted effect of over 55% in size
# Conditions: recombinant tau K18 P301L (four-repeat tau fragment), heparin-induced fibrillization, ThT fluorescence; series mostly up to 57.4 µM; activity, negative = inhibition: at the top concentration
# Summary of the method: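 Tau K18 P301L fragment (15 uM unlabeled plus 0.24 uM Alexa 594-labeled) in 100 mM sodium acetate pH 7 with compound, fibrillization induced by 20 uM heparin for 6 hr at 37 C. Thioflavin T (30 uM) added, fluorescence read after 1 hr (ex 450, em 510 nm).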
# % is scaled to controls: 0 for no effect and ±100 for the full control effect; potency is read from the fitted curve at half-maximal effect; tags tell the direction and shape of the fitted curve.
SMILES,"activity, negative = inhibition",Potency
CCCCNC(=O)CN1CCN(c2ncc(NC(=O)c3ccc(Cl)cc3)cc2C(=O)O)CC1,inactive: -9.59%,
Nc1ccc2nc(Cc3ccccc3)[nH]c2c1,,"inconclusive: 0.794 µM [inhibitor, full curve]"
CC(C)C[C@H](NC(=O)[C@H](Cc1ccccc1)NC(=O)CNC(=O)CNC(=O)[C@@H](N)Cc1ccc(O)cc1)C(=O)N[C@@H](CCCN=C(N)N)C(=O)N[C@@H](CCCN=C(N)N)C(=O)N[C@@H](CCC(N)=O)C(=O)N[C@@H](Cc1ccccc1)C(=O)N[C@@H](CCCCN)C(=O)N[C@H](C(=O)N[C@H](C(=O)N[C@H](C(=O)O)[C@@H](C)O)C(C)C)C(C)C,inactive: -10.2%,
O=C(CN1CCN(CC(=O)c2ccc(F)cc2)CC1)Nc1ccccc1Cl,inactive: -17.1%,
O=C(Nc1ccc2c(c1)nc1n2CCN(Cc2ccccc2)C1)NC1CCCCC1,,"inconclusive: 28.2 µM [inhibitor, partial curve]"
C=CCN1C(=O)C(CC(=O)Nc2ccc(OCCC)cc2)N(CCCN2CCN(Cc3ccccc3)CC2)C1=S (stereo not given),,"inconclusive: 10 µM [inhibitor, partial curve]"
CCCCC(=O)Nc1nc2c(OC)ccc(OC)c2s1,,"inconclusive: 17.8 µM [inhibitor, partial curve]"
CCOc1ccc(-c2nc(C#N)c(N3CCCCCC3)o2)cc1,,"inconclusive: 20 µM [inhibitor, partial curve]"
CC1(C)CC(NC(=O)C2CCCCC2C(=O)O)CC(C)(C)N1 (stereo not given),inactive: 10.7%,
O=C1Nc2ccccc2C12OCCCCO2,inactive: -10.9%,
O=c1oc2ccccc2cc1-c1nc(-c2cccs2)no1,inactive: -12.8%,
Oc1[nH]c2ccccc2c1N=Nc1ccc(F)cc1,,active: 2 µM
Cc1ccc2cc(C(c3nnnn3Cc3ccccc3)N3CCc4ccccc43)c(=O)[nH]c2c1 (stereo not given),,"inconclusive: 17.8 µM [inhibitor, partial curve]"
Cc1ccc([N+](=O)[O-])cc1NC(=O)CN1CCCCC1,inactive: 3.12%,
Cc1ccc(NC(=O)C(NC2CCCc3ccccc32)c2ccccc2)cc1Cl (stereo not given),inactive: 4.62%,
Cc1ccc(S(=O)(=O)NN=C2C3CC4CC(C3)CC2C4)cc1[N+](=O)[O-],inactive: 1.86%,
O=C1NC(=O)C(Nc2cccc3ccccc23)S1 (stereo not given),,"inconclusive: 20 µM [inhibitor, single point]"
O=C1CCC/C1=C\Nc1ccc(Cl)c([N+](=O)[O-])c1,,"inconclusive: 17.8 µM [inhibitor, partial curve]"
COc1ccc(CN2CCNC(=O)C2CC(=O)N(Cc2nccn2C)C(C)C)c(OC)c1 (stereo not given),,"inconclusive: 12.6 µM [inhibitor, partial curve]"
COCCc1nn2c(=O)cc(COC(=O)c3ccc(Br)cc3)nc2s1,inactive: -2.27%,
CC(C)CCC[C@@H](C)[C@H]1CC[C@H]2[C@@H]3CC=C4C[C@@H](O)CC[C@]4(C)[C@H]3CC[C@]12C,inactive: -11.2%,
Cc1cccc(N2CCN(C(=O)c3cc4ccc5cccnc5c4[nH]3)CC2C)c1 (stereo not given),,"inconclusive: 14.1 µM [inhibitor, partial curve]"
CN1CCN(C(CNC(=O)c2c(F)cccc2F)c2ccc3c(c2)OCO3)CC1 (stereo not given),inactive: 5.57%,

SMILES,"activity, negative = inhibition",Potency
O=C(c1cc2ccc3cccnc3c2[nH]1)N1CCN(c2cccc(Cl)c2)CC1,,"inconclusive: 8.91 µM [inhibitor, full curve]"
NC(=O)[C@@H]1CCCCNc2c(I)cc([N+](=O)[O-])cc2C(=O)N[C@@H](CCC(=O)O)C(=O)N[C@@H](CO)C(=O)N1,,"inconclusive: 28.2 µM [inhibitor, partial curve]"
CCCCc1nn2c(=O)cc(COC(=O)c3ccccc3C)nc2s1,,"inconclusive: 0.891 µM [inhibitor, partial curve]"
CO[C@H]1COC(=O)[C@@H](C)COC(=O)[C@H](C)NC(=O)C/C=C\[C@H]1C,inactive: 1.28% [at 11.5 µM],
Cc1cc(C)c2c(NC(=S)NC(=O)c3ccccc3)nn(C)c2n1,inactive: -4.83%,
COc1ccc(N2CCN(C(=O)c3oc4ccccc4c3C)CC2)cc1,,"inconclusive: 11.2 µM [inhibitor, partial curve]"
C[C@@H]1CN2[C@H](c3ccc(Br)cc3)[C@H](C)CC[C@H]2C(=O)O1,inactive: -1.31% [at 11.5 µM],
CCS(=O)(=O)N1CCc2cc(C(=O)NCc3ccccc3Cl)ccc21,inactive: -8.63%,
CSc1nc(Cl)c(Cc2ccc(OC(C)C)cc2)c(N2CCOCC2)n1,,"inconclusive: 15.8 µM [inhibitor, partial curve]"
N#Cc1c(NC(=O)C2C3C=CC(C3)C2C(=O)O)sc2c1CCCCC2 (stereo not given),inactive: -15.8%,
COc1ccc(C(=O)/C=C\c2ccc(NC(=O)c3cccs3)cc2)cc1,,"inconclusive: 5.01 µM [inhibitor, partial curve]"
Brc1ccc(-c2csc(N3CCc4ccccc4C3)n2)cc1,,"inconclusive: 12.6 µM [inhibitor, partial curve]"
COc1ccc(/C=N/NC(=O)c2cc(C)oc2C)cc1OC,,"inconclusive: 31.6 µM [inhibitor, partial curve]"
CC(C)C(=O)Nc1sc2c(c1-c1nc3ccccc3[nH]1)CCCC2,,"inconclusive: 31.6 µM [inhibitor, single point]"
Cc1cc(C)c(O)c(N)c1,,active: 22.4 µM
Cc1[nH]c2ccccc2c1/C=N/NC(=O)C1CC1(c1ccccc1)c1ccccc1 (stereo not given),,"inconclusive: 12.6 µM [inhibitor, partial curve]"
COc1ccccc1NC(=O)c1sc2nc(C)c(C(=O)Nc3ccc(C)cc3C)c(-c3ccccc3Cl)c2c1N,,"inconclusive: 3.98 µM [inhibitor, single point]"
Cc1ccc(NC(=O)CCN2C(=O)c3ccccc3Sc3ncccc32)c(Cl)c1,inactive: 1.56%,
CC(C)Cc1cc(C(=O)Nc2ccc(F)cc2F)no1,inactive: 8.68%,
CCOC(=O)C(=Cc1cc(=O)c(OC)co1)C(=O)OCC,,"inconclusive: 15.8 µM [inhibitor, single point]"
CC(C)(C)C(=O)Nc1cc(S(=O)(=O)Nc2ccc(Cl)cc2)ccc1Cl,inactive: -0.069%,
CN(C(=S)NC(=O)CCCOc1ccc(Cl)cc1Cl)c1ccccc1,inactive: 10.8%,

# Reference: PubChem BioAssay AID1460 (National Center for Advancing Translational Sciences (NCATS), 2008)
